# Measurements from PubChem BioAssay AID1794842 (National Center for Advancing Translational Sciences (NCATS), 2023).
# The whole screen tested about 2,800 compounds, of which fewer than 10 were called active. Calls come from the whole dose curve; as a rule, active = well fitted curve in the direction sought with a large enough effect; inconclusive = small, poorly fitted or top-dose-only effect, or another doubt; inactive = no such curve, though single readings can be large or run the other way. This is one part of the list.
# Biological target: Metallo-beta-lactamase type 2 (Klebsiella pneumoniae) (UniProt C7C422)
# UniProt C7C422, sequence (C7C422 whole entry, looked up): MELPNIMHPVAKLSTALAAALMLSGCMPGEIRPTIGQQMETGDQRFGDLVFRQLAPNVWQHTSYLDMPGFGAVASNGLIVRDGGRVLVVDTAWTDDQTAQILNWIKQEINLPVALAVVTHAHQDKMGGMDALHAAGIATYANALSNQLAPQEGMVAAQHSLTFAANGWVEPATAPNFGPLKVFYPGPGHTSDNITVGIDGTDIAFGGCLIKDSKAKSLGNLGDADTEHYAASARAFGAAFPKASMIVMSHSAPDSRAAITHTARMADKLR
# Assay: qHTS to identify inhibitors of the New Delhi Metallo-beta-lactamase (NDM): Meropenem screen against the machine-based learning selections. Note: % of control where 0% means no effect.
# Settings: Purified NDM-1, meropenem hydrolysis, absorbance 300 nm; at 38.4 µM (top of the series) unless noted
# How it was run: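 NDM-1 (2 nM final) in 50 mM HEPES pH 7.0, 1 uM Zn2SO4, 0.01% Tween20 was preincubated with compounds for >30 min. Nitrocefin (16.7 uM final) was read at 485 nm after 15 min, and meropenem (50 uM final) at 300 nm after 30 min.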
row,Compound,"activity change, negative = inhibition"
1,O=C(NCCc1ccc(F)cc1)C1CN(c2ccccc2)C(=O)N1 (stereo not given),inactive: -0.594% [at 57.5 µM]
2,COc1ccccc1-n1cc(-c2ccnc(N3CC(n4cccn4)C3)n2)cn1,inactive: -4.55%
3,COCCNC(=O)c1ccc2c(c1)N(C)C(CC(=O)Nc1ccc(N)nc1)CO2 (stereo not given),inactive: -0.622%
4,CN(C)Cc1nnc(C2CCN(C(=O)Nc3cccc(C#N)c3)CC2)n1C,inactive: 1.12%
5,Cc1cccc(OCC2CCCN(C(=O)c3sc(C(C)C)nc3C)C2)c1 (stereo not given),inactive: 1.91%
6,CN1C(=O)COC[C@@H]1[C@H](O)c1ccc(NC(=O)Nc2ccccc2)cc1,inactive: -0.431% [at 57.5 µM]
7,Cc1noc(C)c1-c1cnc2[nH]cc(CC(=O)NCc3cccnc3)c2c1,inactive: 7.57% [at 57.5 µM]
8,Fc1ccc(CN2CC[C@H](c3nc4ccccc4o3)C2)cc1F,inactive: -0.786% [at 57.5 µM]
9,Cc1ccccc1Nc1n[nH]c(C(O)c2ccc3c(c2)CCO3)n1 (stereo not given),inactive: 3.16% [at 57.5 µM]
10,O[C@@H]1C[C@@H](c2nc(-c3ccccn3)no2)N(Cc2ccccc2)C1,inactive: 0.702% [at 57.5 µM]
11,COc1ccc(-c2noc([C@@H]3Cc4nc[nH]c4CN3C(=O)Nc3ccc(C)cc3)n2)cc1,inactive: 7.68% [at 57.5 µM]
12,CCCNc1ncc(CN2CCCC(c3ccc(C(=O)O)cc3)C2)cn1 (stereo not given),inactive: 1.52%
13,Cn1cc(CN[C@H]2C[C@H]3C(=O)NC[C@@H](CCC(=O)N4CCCCC4)N3C2)c2ccccc21,inactive: 4.63%
14,CC(C)c1ccc(NC2=N[C@H]3[C@@H](O)[C@H](O)C[C@H](C(=O)NC4CCCC4)[C@H]3S2)cc1,inactive: -2.7% [at 57.5 µM]
15,COc1cccc(Nc2ncc3c(n2)C(C)(C(=O)Nc2nc(C)cs2)CC3)c1 (stereo not given),inactive: 5% [at 57.5 µM]
16,O=C1[C@@H]2C[C@@H](CN2Cc2ccccc2)Oc2ccccc2N1Cc1ccccc1,inactive: 0.797% [at 57.5 µM]
17,O=C(CN1C(=O)C2(CCNCC2)Nc2ccccc21)NC1CCCCCC1,inactive: 2.46%
18,Cc1cc(-c2cccc(CCOc3cnc4c(ccn4CC(=O)O)c3)c2)ccn1,inactive: 13.7% [at 57.5 µM]
19,O=C(CCC[C@H]1NC[C@@H]2C[C@H]1CN(Cc1ccccc1)C2)NCCc1cccnc1,inactive: 65.2%
20,COC[C@H]1CCCN1C(=O)C[C@@H]1O[C@H](CNS(C)(=O)=O)[C@@H](O)[C@H]1O,inactive: 19.9% [at 57.5 µM]
21,CC(C)NC(=O)C[C@@H]1C[C@H]2O[C@H](CNCc3ccccc3Cl)[C@@H](O)[C@H]2O1,inactive: 1.79% [at 57.5 µM]
22,COc1ccc(NC(=O)N2CC[C@H]3COC(=O)N3c3cc(C)ccc3C2)cc1,inactive: 0.822% [at 57.5 µM]
23,COc1cccc(S(=O)(=O)N2C[C@@H](C)[C@](O)(C3CCC3)C2)c1,inactive: -1.22%
24,Cc1nn(-c2ccccc2)c(C)c1S(=O)(=O)N[C@@H]1[C@@H](N)[C@H]2CCO[C@H]21,inactive: -0.639%
25,Cc1cc(F)ccc1-c1[nH]nc2ncc(-c3ccsc3)nc12,inactive: 0.0975% [at 57.5 µM]

row,Compound,"activity change, negative = inhibition"
1,CCN(CC)C(=O)[C@@H]1CCC[C@@H](NS(=O)(=O)c2ccccc2)CN(C)C(=O)C1,inactive: 0.226% [at 57.5 µM]
2,O=C(O)CCn1ncc2cc(OCc3ccc(-c4cccc(CO)c4)cc3)ccc21,inactive: 52.6% [at 57.5 µM]
3,C#CCN(C)Cc1nc(C2(O)CCN(C(C)=O)CC2)cs1,inactive: 0.966% [at 57.5 µM]
4,Cc1cc(C)c(CNC(=O)c2nc(-c3cccc(N4CCOCC4)c3)cc3[nH]ccc23)c(=O)[nH]1,inactive: 10.8%
5,CC(C)CNC1(Cc2cc(CN(C)Cc3ccccc3)on2)COC1,inactive: -0.0043% [at 57.5 µM]
6,C=CCNC(=O)N[C@H]1C[C@H]2C(=O)Nc3ccc(-c4cccs4)cc3C(=O)N2C1,inactive: 22.7% [at 57.5 µM]
7,COc1ccc(-c2cc(-c3ccccc3O)cn3cncc23)cc1,inactive: 31.9% [at 57.5 µM]
8,c1cncc(-c2cnc([C@@H]3COCCN3Cc3ncc[nH]3)[nH]2)c1,inactive: 82.9% [at 57.5 µM]
9,O=c1c2nc(-c3cccc(O)c3)ccc2ncn1-c1ccccc1,inactive: 13.7% [at 57.5 µM]
10,O=C(NCCc1nc(-c2cccnc2)n[nH]1)C1CNCCO1 (stereo not given),inactive: 30.8%
11,OC1CCC(NCc2ccc(-c3cnc4c(OCc5ccccc5)nccn34)cc2)CC1 (stereo not given),inactive: 0.312% [at 57.5 µM]
12,CCOC(=O)N1CCN(C(C(=O)O)c2ccc(OC)nc2OC)CC1 (stereo not given),inactive: 29%
13,Cc1ccc2cccc(OCCNC(=O)C3NCCc4[nH]cnc43)c2n1 (stereo not given),inactive: 16.8%
14,N[C@@H]1CC[C@H](C(=O)Nc2ccc(CC(=O)N3CCCC3)cc2)C1,inactive: 1.21%
15,c1cncc(CNc2cc(-c3cnc4ccccc4n3)c3cc[nH]c3n2)c1,inactive: -0.853%
16,COc1ccccc1-c1[nH]nc2ncc(C(=O)Nc3ccc4[nH]ccc4c3)nc12,inactive: 8.38% [at 57.5 µM]
17,Cc1ccccc1-c1cnc2[nH]cc(CC(=O)Nc3ccccn3)c2c1,inactive: 4.66% [at 57.5 µM]
18,COC[C@]1(O)CCN(S(=O)(=O)c2cccc(C(=O)O)c2)CC1(C)C,inactive: 0.743%
19,COc1ccccc1N1CCN(C(=O)C[C@@H]2O[C@H](CNS(=O)(=O)c3ccc(Cl)cc3)[C@@H](O)[C@H]2O)CC1,inactive: -1.72%
20,Cn1ccnc1CN1C[C@@H]2C[C@H]1C(=O)N(CC1CC1)c1ccccc1O2,inactive: 4.52% [at 57.5 µM]
21,Cc1nnc(-c2cc(N3CCN(c4ccccn4)CC3)ccn2)n1-c1ccccc1,inactive: 9.72% [at 57.5 µM]
22,COCCN1C(=O)[C@@H]2C[C@@H](CN2C)Oc2ccccc21,inactive: 8.82% [at 76.7 µM]
23,CC(C)Cc1ccc(S(=O)(=O)N2CCCC(Cn3cnc4cccnc43)C2)cc1 (stereo not given),inactive: -0.671%
24,CC(CO)NS(=O)(=O)c1cccc(C(=O)NCCc2ncnn2C)c1 (stereo not given),inactive: -0.683%
25,CCn1c(CO)nnc1C1CC(NC(=O)Cc2ccc(-n3cnnn3)cc2)C1 (stereo not given),inactive: -0.0467%

row,Compound,"activity change, negative = inhibition"
1,N#Cc1cccc(NC(=O)N[C@H]2CO[C@H]3[C@@H]2OC[C@@H]3Nc2nccc(C3CCCC3)n2)c1,inactive: -3.52% [at 57.5 µM]
2,Cc1noc([C@@H](C)NC(=O)C2CCCC2)c1C(=O)O,inactive: 0.72% [at 76.7 µM]
3,O=C(Nc1ccccc1)O[C@@H]1CO[C@H]2[C@@H]1OC[C@@H]2n1nnnc1Sc1ccccc1,inactive: 1.8% [at 57.5 µM]
4,OCCC1CN(CCOc2ccc(F)cc2)CCN1CC1CCCCC1 (stereo not given),inactive: -0.363%
5,NC(=O)c1cccnc1N1CCC2(CC1)CC(C(=O)O)N(C(=O)C1CC1)C2 (stereo not given),inactive: 10.6%
6,Cc1[nH]c2ccc(C(=O)N3CC[C@@](C)(O)[C@@H](O)C3)cc2c1C,inactive: -1.16%
7,CCN(CC)Cc1cnc2c(C(=O)N(C)Cc3cc(C)cc(C)n3)cnn2c1,inactive: -0.367%
8,COc1ccc(S(=O)(=O)N2CCC(c3noc(-c4ccncc4)n3)C2)cc1 (stereo not given),inactive: 1.02%
9,Fc1ccc(-c2cnc([C@@H]3COCCN3Cc3cnc4ccccc4c3)[nH]2)cc1,inactive: 2.48% [at 57.5 µM]
10,CN1C(=O)[C@@H]2C[C@@H](O)CN2C2(CN(Cc3cccc(F)c3)C2)C1=O,inactive: 12.6% [at 57.5 µM]
11,NC(=O)Cc1c[nH]c2ncc(-c3cccc(CO)c3)cc12,inactive: 6.7% [at 76.7 µM]
12,O=S(=O)(NC[C@H]1OC[C@@H](NCc2ccccc2F)[C@@H]1O)c1ccccc1,inactive: -2.73% [at 57.5 µM]
13,COCCNC(=O)[C@@H]1CCC[C@@H](NC(=O)c2cc(C)n(C)n2)CN(C)C(=O)C1,inactive: -1.1% [at 57.5 µM]
14,O=C1CCC2(CCCO2)CCN1Cc1ccc(C(F)(F)F)cc1 (stereo not given),inactive: -1.6%
15,O=C(NC[C@H]1O[C@@H](CO)[C@@H](O)[C@H]1N1CCCC1)c1ccc(F)c(Cl)c1,inactive: 4.45% [at 57.5 µM]
16,O=C(NCC1CN(Cc2cccnc2)CC12CN(c1ccccc1)C2)Nc1ccccc1 (stereo not given),inactive: 0.419% [at 57.5 µM]
17,Cc1nnc(-c2cc(N3CCN(c4ccccn4)CC3)ccn2)n1C1CCCCC1,inactive: -2.36% [at 57.5 µM]
18,Cc1nn(-c2ccc(C(C)(C)C)cc2)c(C)c1[C@@H]1C=C[C@@H](NC(=O)NCc2ccccc2)C1,inactive: 0.21% [at 57.5 µM]
19,CC(C)C(=O)N1CCC(N2C(=O)C3(CCCC3)C2c2ccccc2)CC1 (stereo not given),inactive: -2.44%
20,Cc1cnc(C(=O)N2CCCC(c3nc(-c4cccnc4)no3)CCNC(=O)CC2)cn1 (stereo not given),inactive: 11.1%
21,Cn1cncc1C(=O)N1CC(F)(F)C[C@H]1c1nc(C2CC2)no1,inactive: 0.163%
22,COc1ccc(-c2noc([C@@H]3C[C@H](NCc4ccc(N(C)C)cc4)CN3C)n2)cc1,inactive: -5.46% [at 57.5 µM]
23,O=c1[nH]nc(CNCC2(O)CCCNC2)c2ccccc12 (stereo not given),inactive: 29%
24,CC1=C[C@@H](CNC(=O)COc2ccccc2)[C@H](C(C)C)C[C@H]1CC(=O)N1CCN(C)CC1,inactive: 0.432%
25,C[S+](=O)([O-])Nc1cccc(Nc2cnc3ccc(-c4ccccc4)nn23)c1,inactive: 6.77% [at 57.5 µM]
